# Laboratory results taken from paper PMC12136788.
# Some of the results follow.
# T1: UNK ZnF1-3 (human, UniProt Q9C0B0 31-174)
# T1 sequence: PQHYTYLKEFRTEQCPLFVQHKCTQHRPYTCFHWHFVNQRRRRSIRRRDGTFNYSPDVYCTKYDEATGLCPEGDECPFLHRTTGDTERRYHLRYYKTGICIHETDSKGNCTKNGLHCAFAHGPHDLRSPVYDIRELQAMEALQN
# B1: chr12:12974248:12974249:+_ENSG00000213782_ENST00000358007|hu_mus|FALSE|FALSE (ssRNA)
# RNA: GGGAGUUCUACAGUCCGACGAUCCAGGGCCUCGAACUGCUCAGAGAUCUGAAAGGCCAACUCUCGAGUAGGGGUGAGGACCAGGGCGAACAGUCGCUGGGGCGUCUCCAGCAGGGCAUUCAGGAUGGGCAAAGCAAAGGCACCCAACAGAGGAUUGAGCAUCA
# B2: chr9:78015909:78015910:+_ENSMUSG00000009828_ENSMUST00000044551|mus_hu|FALSE|FALSE (ssRNA)
# RNA: GGGAGUUCUACAGUCCGACGAUCAAAUAACCCUCUAUCACAUAGCCUUAAAUUGCACCCCUGUUGCAAUACUGCAUUAAUAUUAUUACAUUUUUCAAAAUCUGUAGAAAAUAUUAUCUGGAACCCCAAAGGAAAAUCAAUUAACAACAGAGGAUUGAGCAUCA
# B3: 133253450_133308401_1176_3pUTR_ENSMUSG00000026425_ENSMUST00000097588|mouse|control|control (ssRNA)
# RNA: GGGAGUUCUACAGUCCGACGAUCUCGGCAUUGUACAUGUGAUAUGUCUUCAUGACCGAGUAAAGCUCGUUCAGGACUUUCAUCAAAUCAUCUUGGAGUUGCUGGCCAACUUCUUUACUCUUUUUAAAGAGUCUUCCUGAGUCCCAACAGAGGAUUGAGCAUCA
# B4: chr10:121602103:121602104:-_ENSG00000197771_ENST00000369077|hu_hu|FALSE|FALSE (ssRNA)
# RNA: GGGAGUUCUACAGUCCGACGAUCAAGGAACCCAAGAAGUUCUGCUCUGACUGGAGACAAUUCGGACAUGAAACUUGAAACAAAGGUUUUGCUCUCCUCUUUGUUAAGGCAGGCAGGCAAUAAUGGGUUGAUGUGUUGCAACUUCAACAGAGGAUUGAGCAUCA
# B5: chr4:138453181:138453182:-_ENSG00000189184_ENST00000344876|hu_hu|motif|central (ssRNA)
# RNA: GGGAGUUCUACAGUCCGACGAUCGUUCCUCAUAAAUCCUGUAUUUCAAAUUCUUGCCCAGUACAUCGUGGUUGAAAGAUACGGUCAGAAGUGCAAAAACAAACCUAAAGUGCAUUUUAGCAUUCAUUUGGUGCAUUGGUCAGUCAACAGAGGAUUGAGCAUCA
# B6: chr2:117085000:117085001:+_ENSMUSG00000027349_ENSMUST00000028825|mus_hu|FALSE|FALSE (ssRNA)
# RNA: GGGAGUUCUACAGUCCGACGAUCACGAUCUUUAAUAUCUCCUGAUAUGAGUACAGAAUAUGGACAUGCCAUUUCUUUUAAAAAGCCACUUAUCUCAAGCUGGAAGCUCUCUAGAUCAUCUCUUCCAGCAGACGUGAUACUUUCCAACAGAGGAUUGAGCAUCA
# B7: chr4:95690885:95690886:+_ENSMUSG00000028572_ENSMUST00000156910|mus_mus|mus_mus_mus_hu_False|8_108 (ssRNA)
# RNA: GGGAGUUCUACAGUCCGACGAUCUUUAUUUUUAGAAAAAUACCAUGCUAAAAUAUUUUCAAAGGCUUAUUUUAUUUUACCAGAAGUCACAGGCAAGCAGACACUACAAGAAUAUAUGAAAAUGAAACAACAGUGUAUAACUGUCAACAGAGGAUUGAGCAUCA
# B8: chr8:95500983:95500984:-_ENSG00000164944_ENST00000437199|hu_hu|hu_hu_hu_mus_True|18_38 (ssRNA)
# RNA: GGGAGUUCUACAGUCCGACGAUCAGAACACAUCUAUCGAGUAAAGGACCGUACAUGACGGCCUCUACCACUGCCUCCACUAACAAACUUUCCUCUCUGAGCCUCCAUGCCGCUAUUUUGCACUAGCCAGGACGGUCCCAGGCCCAACAGAGGAUUGAGCAUCA
# B9: 38356352_38356472_726_CDS_ENSMUSG00000044864_ENSMUST00000156038|mouse|control|control (ssRNA)
# RNA: GGGAGUUCUACAGUCCGACGAUCGCUCUUGAUGUGCAGCUGGUUCAGCGUCUCAGCCGUCUCCUUGGUGAGGUGCUGCCGCAGUGCCUCCUCUUGAUCCAGGCGGUGGAGGAUGUACUGCUGAACAUCCUUAACGAUAUAUGCCAACAGAGGAUUGAGCAUCA
# B10: chr19:7501953:7501954:-_ENSMUSG00000024758_ENSMUST00000025667|mus_mus|motif|central (ssRNA)
# RNA: GGGAGUUCUACAGUCCGACGAUCCGGAAGAAAUCCCACUCUUGCCCCAUACUAUUUAUUCAUAAGUUAAUCAUUAUUUCCGGACUUAAAAAUAAGGGCAAAAUUAUAAAUGGGAGCUGUAUACGAGUCCUUGGAACUGGAGAGCAACAGAGGAUUGAGCAUCA
# B11: 96641269_96641389_1145_CDS_ENSG00000111145_ENST00000228741|human|control|control (ssRNA)
# RNA: GGGAGUUCUACAGUCCGACGAUCUUUUUUGGCCUUUGGGGGAAGAGAUGGAGACUUGGUCUUGGAGCCCGAUGACAGGUUCAAGGGCUCCAGGGAAUCGGAGUCAUGGCAGGCGGCCUCCAGGAAGAGGCUUCUGUGUUCAGACAACAGAGGAUUGAGCAUCA
# B12: 32247416_32247536_761_CDS_ENSG00000125967_ENST00000246190|human|control|control (ssRNA)
# RNA: GGGAGUUCUACAGUCCGACGAUCGGAGGGUCCUCCCUUGUGGGGCCCUGGCCCCACGGCCCUCACCUUGCACUCGAGCUGGUCGAUGAGCUCCUGGAGGCGGUUCACCUGGAGCCGCCACUGCAUCUCGGCCUCUGAGCUGCGCAACAGAGGAUUGAGCAUCA
# B13: 103549188_103549308_3251_CDS_ENSMUSG00000008730_ENSMUST00000118317|mouse|control|control (ssRNA)
# RNA: GGGAGUUCUACAGUCCGACGAUCAAGGUUGAGUGGCUGCACCGCGCUGGCUCCCCCUCGCUGAGCCCGGUACCCCGUGGGAGUGAUACAGCAUCCAGAUGACUGCCCACUCACUGAGGCCACUGGCUUGGUCUUACUGCUAAGCAACAGAGGAUUGAGCAUCA
# B14: chr7:19736620:19736621:-_ENSG00000105849_ENST00000222567|hu_mus|FALSE|FALSE (ssRNA)
# RNA: GGGAGUUCUACAGUCCGACGAUCAAGAUGCUGGUUAUUUAUCUACCUGUACAUAUUAAAUUGCUGUCAUUCCUUAUGCUCUAUAUACCGUAGAUGAAGUCAAGAAACAUGGUUGCCAGAAUUUACUCCUUAUGAAACAUUAAGCAACAGAGGAUUGAGCAUCA
# B15: chr18:34367003:34367004:-_ENSG00000134779_ENST00000590842|hu_hu|motif|central (ssRNA)
# RNA: GGGAGUUCUACAGUCCGACGAUCCCUCAGCUCCCAUUGGAGGGGCUCAACAGCCAGUUUCCAGUGAACACAUUUUCUUCGGUUCAUUUUGAUAUUAUAAGUUAUCUUGGCCUGUGGGCUAAUGCCAUAGCUGGUGAAGGCAUACAACAGAGGAUUGAGCAUCA
# B16: chr6:41757443:41757444:+_ENSG00000214736_ENST00000398881|hu_mus|hu_hu_hu_mus_False|28_98 (ssRNA)
# RNA: GGGAGUUCUACAGUCCGACGAUCGAACCGUGCAGAGACCAGAGAAUAGCCGACACUGGGGGAUGGGGGGGCAGUGGGGGGGGGUUCAGGCAAGGAGAGGGAGUCAACCCAUCUGAACACUCAGGUAGGAUCUUGUGGUCACAGCAACAGAGGAUUGAGCAUCA
# B17: 75144492_75145415_650_3pUTR_ENSMUSG00000021996_ENSMUST00000022573|mouse|control|control (ssRNA)
# RNA: GGGAGUUCUACAGUCCGACGAUCAUUAGGAUGUCAAUCUGGGAACCCGAAUAGGCCUUCACGAGACAGGUCGCAUCGUAUGCCUUCCAUUUACUUUCAUCUGGUCCCAAAUAUCCACUAAAAGCUUUUUUGCCCCAAGAACACCAACAGAGGAUUGAGCAUCA
# B18: chr22:19452774:19452775:-_ENSG00000070010_ENST00000399523|hu_hu|hu_hu_hu_mus_False|28_88 (ssRNA)
# RNA: GGGAGUUCUACAGUCCGACGAUCCUUCUCAUUGUAGUUGAUAGCAAUCACAUCCCCAGUCGUCAGACAGGCGAAGUUUCUCAAUGCAUUUUCUAAUACCGCUUUAGGGUUGGUGAUAUCCAGGAAGUCUGGGCUCUGAGGCUGCAACAGAGGAUUGAGCAUCA
# B19: chr4:115894766:115894767:+_ENSMUSG00000028698_ENSMUST00000030464|mus_hu|mus_mus_mus_hu_True|18_108 (ssRNA)
# RNA: GGGAGUUCUACAGUCCGACGAUCUUCACACGGAAAUUGUACUUCGGGUUUUCCAACGGCCAGUACCAGUCCGGCCAAACUACCCGAACAGGGUCCUCCCCCUCUCUCCUACAGAACUAAAGCACCCGCCCCCGAACUUUCAAGCAACAGAGGAUUGAGCAUCA
# B20: chr4:115894766:115894767:+_ENSMUSG00000028698_ENSMUST00000030464|mus_hu|mus_mus_mus_hu_True|18_78 (ssRNA)
# RNA: GGGAGUUCUACAGUCCGACGAUCUUCCACACGGAAAUGUACUUCGGGUUUUCCAACGCCAGUACAAAGUCCGGCCAAACUACCCGAACAGGGUCCUCCCCCUCUCUCCUACAGAACUAAAGCACCCGCCCCCGAACUUUCAAGCAACAGAGGAUUGAGCAUCA
# B21: chr2:26491064:26491065:+_ENSMUSG00000036186_ENSMUST00000074240|mus_mus|motif|central (ssRNA)
# RNA: GGGAGUUCUACAGUCCGACGAUCGAAGUCCGCCAUGAGAAGUAUCUGGUCAACCAGCGCUGGCAGGGAAGGCAGGUCUCCGGAGUUAGCCUUGAGGAAGCUGAGGGUCAUCUCCCGGAACUCCUUGAUGGAAGUUCCCCUGGUCAACAGAGGAUUGAGCAUCA
# B22: chr11:102700179:102700180:-_ENSMUSG00000020929_ENSMUST00000107060|mus_hu|FALSE|FALSE (ssRNA)
# RNA: GGGAGUUCUACAGUCCGACGAUCGUAAUUGAGCACAACAUCCUGUUUGGCAAGUUCCAGCAACAUAGGAUCAUCGAAGAAUUUGCUGAUGCUCACAUCUUCACUGAGGCCCUUCCUACGGCGGGUUUUGAUCAUGAAUUCCCGCAACAGAGGAUUGAGCAUCA
# Target: T1, UNK ZnF1-3
# Assay: nsRBNS (natural sequence RNA bind-n-seq); RBNS binding buffer (assumed for nsRBNS): 25 mM Tris pH 7.5, 150 mM KCl, 3 mM MgCl2, 0.01% Triton X-100, 500 ug/ml BSA, 20 U/ml SUPERase-In, 4 C; UNK is unkempt and MSI1 is Musashi-1; names of the RNAs are library labels; protein concentration not given here; high values mean tight binding
row,Binder,binding signal
1,B1,1.84 enrichment R
2,B2,1.47 enrichment R
3,B3,0.464 enrichment R
4,B4,1.22 enrichment R
5,B5,1.35 enrichment R
6,B6,0.583 enrichment R
7,B7,2.06 enrichment R
8,B8,1.04 enrichment R
9,B9,0.546 enrichment R
10,B10,1.41 enrichment R
11,B11,0.992 enrichment R
12,B12,0.701 enrichment R
13,B13,1.38 enrichment R
14,B14,0.845 enrichment R
15,B15,1.13 enrichment R
16,B16,2.6 enrichment R
17,B17,0.683 enrichment R
18,B18,0.837 enrichment R
19,B19,1.07 enrichment R
20,B20,1.01 enrichment R
21,B21,0.967 enrichment R
22,B22,1.39 enrichment R
